{"source": "patent US9399028B2", "about": "“Treatment of drug resistant cancer” (ROCKEFELLER UNIVERSITY (THE), priority 2012, dated 2016)", "key": {"[1]": {"test_system": "subcutaneous MeWo melanoma tumors", "test": "Tumor histochemistry (MECA-32, Ki-67, cleaved caspase-3)", "format": "in vivo, human", "settings": "diet 20 mg/kg for 35 days"}, "[2]": {"test_system": "B16F10 mouse melanoma cells", "test": "Subcutaneous B16F10 tumor growth in C57BL/6 mice", "format": "in vivo", "settings": "for melanoma primary tumor growth in vivo: orally in chow after tumors reached 5-10 mm3"}, "[3]": {"test_system": "human melanoma cells and endothelial cells", "test": "In vitro cell proliferation, viability and serum starvation survival", "format": "cell-based", "settings": "MeWo, HT-144, SK-Mel-334.2 cells, 1 μM, 5 days", "method": "To determine the effects of miR-199a or miR-1908 over-expression and combinatorial LNA-induced miRNA inhibition on cell proliferation, 2.5×10^4 cells were seeded in triplicate in 6-well plates, and viable cells were counted after 5 days. […] Viable cells were counted after 8, 24, 48, 72, and 120 hours.\nThe number of viable cells was counter after 8, 16, and 24 hours.\nTo determine the effects of GW3965, T0901317, and Bexarotene on in vitro cell growth, 2.5×10^4 melanoma cells were seeded in triplicate in 6-well plates and cultured in the presence of DMSO, GW3965, T0901317, or Bexarotene at 1 μM each. After 5 days, the number of viable and dead cells was counted using the trypan blue dye (72-57-1, Sigma-Aldrich), which selectively labels dead cells."}, "[4]": {"test_system": "HUVEC recruited by human melanoma cells", "test": "Trans-well endothelial recruitment assay", "format": "cell-based", "settings": "MeWo, HT-144, SK-Mel-2, SK-Mel-334.2, 1 μM for 72 hours", "method": "5×10^4 cancer cells were seeded into 24-well plates approximately 24 hours prior to the start of the assay. HUVEC's were grown to 80% confluency and serum starved in EGM-2 media supplemented with 0.2% FBS for 16 hours. HUVEC's were then pulsed with Cell Tracker Red CMTPX dye (C34552, Invitrogen) for 45 minutes. Meanwhile, cancer cells were washed with PBS, 0.5 mL of 0.2% FBS EGM-2 media was added to each well, and a 3.0 μm HTS Fluoroblock insert (351151, BD Falcon, San Jose, Calif.) was placed into each well. 1×10^5 HUVEC's, resuspended in 0.5 mL of starvation media, were seeded into each trans-well insert, and the recruitment assay was allowed to proceed for 16-18 hours at 37° C. […] Upon completion of the assay, the inserts were processed and analyzed as described for the matrigel invasion assay above (See Matrigel Invasion Assay). […]\nSubsequently, 5×10^4 cancer cells were seeded into 24-well plates in the presence of each drug or DMSO and allowed to attach for 16 hours prior to starting the assay. […] The basal side of each insert was imaged using an inverted fluorescence microscope (Zeiss Axiovert 40 CFL) at 5× magnification, and the number of DAPI-positive cells was quantified using ImageJ."}}, "note": "Counter-ions that a name gives are not always drawn.", "data": [{"smiles": "O=C(O)Cc1cccc(OCCCN(Cc2cccc(C(F)(F)F)c2Cl)CC(c2ccccc2)c2ccccc2)c1", "note": "[GW3965 2, 3-[3-[N-(2-Chloro-3-trifluoromethylbenzyl)-(2,2-diphenylethyl)amino]propyloxy]phenylacetic acid hydrochloride]", "values": [{"measurement": "decrease in the number of actively proliferating tumor cells in vivo", "setting": "[1]; Ki-67", "value": 23, "unit": "%"}, {"measurement": "reduction in the endothelial cell content of tumors", "setting": "[1]; MECA-32", "value": "roughly 2 fold"}, {"measurement": "number of apoptotic cells", "setting": "[1]; cleaved caspase-3", "value": "without a change"}, {"measurement": "suppression of melanoma tumor growth in LXRβ genetically null mice", "setting": "[2]; diet 20 mg/kg for 7 days", "value": "blocked"}, {"measurement": "suppression of tumor growth in mice genetically inactivated for ApoE", "setting": "[2]; diet 20 mg/kg for 7 days", "value": "completely ineffective"}, {"measurement": "tumor growth inhibition in LXRα genetically null mice", "setting": "[2]; diet 20 mg/kg for 7 days", "value": "had no effect"}, {"measurement": "overall survival time, B16F10", "setting": "[2]; immunocompetent mice, chow 100 mg/kg after tumor establishment", "value": "substantially prolonged"}, {"measurement": "melanoma primary tumor growth in vivo", "setting": "[2]", "value": "inhibit"}]}, {"smiles": "CC(CCOc1cccc(CC(=O)O)c1)N(Cc1cccc(C(F)(F)F)c1Cl)CC(c1ccccc1)c1ccccc1", "note": "(stereo not drawn) [SB742881 25]", "values": [{"measurement": "melanoma primary tumor growth in vivo", "setting": "[2]", "value": "significantly inhibited"}]}, {"smiles": "O=S(=O)(c1ccccc1)N(CC(F)(F)F)c1ccc(C(O)(C(F)(F)F)C(F)(F)F)cc1", "note": "[T0901317 1]", "values": [{"measurement": "melanoma primary tumor growth in vivo", "setting": "[2]", "value": "inhibit"}]}, {"smiles": "C=C(c1ccc(C(=O)O)cc1)c1cc2c(cc1C)C(C)(C)CCC2(C)C", "note": "[bexarotene]", "values": [{"measurement": "cell proliferation or cell viability rates", "setting": "[3]", "value": "did not affect"}, {"measurement": "ability of melanoma cells to recruit endothelial cells", "setting": "[4]", "value": "did not significantly affect"}]}]}
